# Experimental data published in the supplement of paper PMC11417369.
# ± gives the standard deviation of the averaged measurements. Some of the results follow.
# System: PfAP2-EXP AP2 domain (GST-tagged)
# Assay: gcPBM binding intensity (ln(normalized median fluorescence intensity)); higher = stronger DNA binding
# Outline: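 The binding buffer was 1× PBS containing 1% milk, 0.2 mg/ml BSA, 0.5% salmon testes DNA and 0.03% Triton X-100. In it, GST-tagged P. falciparum DNA-binding domains expressed in E. coli were applied for 1 h to an Agilent 4 × 180k array of primer-extended double-stranded 36-bp intergenic genomic probes plus negative controls. Binding intensity, read with Alexa488 anti-GST antibody and a 488 nm scan, is the highest Masliner-normalised natural-log median intensity across replicate spots of either probe orientation.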
row,Sequence,gcPBM binding intensity (ln)
1,TGTTTTTAAATTTAAATCAAAAAATAAAATAAAATA [GTGCAC_negctrl_site355],8.34 ± 0.48
2,AAGATAACAAGTAATCAATCTAATTATTAATTATAT [CACACA_negctrl_site1713],8.06 ± 0.44
3,AAAAATATGTGATAATGTACTTTTCATTTTTATTTT [XGTACX_site8544],8.36 ± 0.39
4,AAAAGAAAAATGTCATATGATATCATATATTTTATA [GTGCAC_negctrl_site185],8.2 ± 0.38
5,AATATAATATAATGCACACATAAACAAAAAAAAAAT [CACACA_site1304],8.9 ± 0.45
6,TTCATTTGAAAACTGTGTACTTAAAAATATACATAT [XGTACX_site176],8.24 ± 0.21
7,ATATATTTAAATAAATGTACAAATCATAAATTCAAG [XGTACX_site1417],8.51 ± 0.33
8,ATACATATACACATATGTACATATGAAAAGAAAAAT [XGTACX_site6445],8.94 ± 0.45
9,TTATTAGAAAAATGCACACCAAAAAAAAAAAAAAAA [CACACA_site2522],8 ± 0.33
10,TTTTTATTTTATAATATATTCCTTTTCCTTTCTTTC [CACACA_negctrl_site245],8.41 ± 0.35
11,TACATATATATAAATACACACACACCCACCTTATAA [CACACA_site9346],8.95 ± 0.52
12,TATATATATTGTGTATGTACATATATATAAATATTG [XGTACX_site433],8.51 ± 0.057
13,TACAAAAAGAATGAAAAATATATAATAAAAATAAAA [XGTACX_negctrl_site159],8.49 ± 0.47
14,AAGACAACATAAATATGTACATATATTTATTATTTT [XGTACX_site1792],8.55 ± 0.22
15,CACATACCTATATACACACACAAAATAATAAAATAA [CACACA_site7150],8.68 ± 0.5
16,TATATATATATATTGACACACATGTATTTCAATATT [CACACA_site2832],9.93 ± 0.47
17,ACTAATATTTTATAAAGTACAAATTAATAAAATTCA [XGTACX_site5817],8.15 ± 0.25
18,AGAATGGATTAGCTAGCACACACAAAAAAAAAAAAA [CACACA_site8995],8.48 ± 0.54
19,AAGTATGGAAAGGAATATAAATTAATACTTTCATTG [XGTACX_negctrl_site131],8.34 ± 0.46
20,CTTATATATTGCCCTTCACACACACCCATATATATA [CACACA_site8795],9.33 ± 0.37
21,TTTTGTAGATATGACTGTACATATTTTATACATAAC [XGTACX_site971],8.47 ± 0.32
22,AAAAAATAAATAAATACACACAAATATATATATATA [CACACA_site2543],10.2 ± 0.071
23,TAATATGTATATAAAAGTACAGACGATTATAATTAT [XGTACX_site173],8.71 ± 0.38

row,Sequence,gcPBM binding intensity (ln)
1,AAGAAAAAAAAAATTACACACTGCGCAGATACACAA [CACACA_site1289],8.85 ± 0.38
2,TGGTAATCCACATACACACACACATACACATATATA [CACACA_site2727],8.74 ± 0.48
3,ATATATATATGTAAGAGTACACAAAAATATGTATGT [XGTACX_site4335],9.62 ± 0.13
4,TACTATTTAAAATATGAACACACATTATTTGTTTTA [CACACA_site8870],8.13 ± 0.3
5,CACAAAAATAAACACACACACATATATATTTATTAT [CACACA_site5923],8.4 ± 0.36
6,GGAAACTAAAGGAATAAAACTATGGAAATTAATTAA [CACACA_negctrl_site1647],8.62 ± 0.46
7,TAAATTAAAAGACACACACACAAAAAAAAAAAAAAA [CACACA_site7131],8.24 ± 0.57
8,ATTCAAAATTATAGGTGTACGTATTTTTTTTTTTTT [XGTACX_site7177],8.42 ± 0.34
9,TAAATTTATAAATCACGTACATATTTATTTATATTT [XGTACX_site4532],8.38 ± 0.33
10,AGATGATATAATGGCACACAAATATTTTATTATAAA [CACACA_site3553],8.45 ± 0.38
11,ATAATTTCATAATACGTGCACATAATATATAAAAAA,8.87 ± 0.014
12,AATAAAAATATATCCACACACATATATATATATGTA [CACACA_site576],8.31 ± 0.34
13,ATATGAATATATATATGTACTAATTAGTAGTTTACG [XGTACX_site6273],8.84 ± 0.4
14,GAAGATATGTAAAATTGTACATATTATTTTATTTTA [XGTACX_site5302],8.1 ± 0.34
15,AGAAATTTACAAATACGTACACACATATATATATAT [XGTACX_site3141],10.1 ± 0.23
16,TCATAACAACTTTGTGTGCACATAAAACATGTATAT,8.94 ± 0.3
17,TTTTTTTTTTCATTCACACAAAAAAAAAAAATTTAT [CACACA_site5921],8.21 ± 0.35
18,TATAAGACATGATATATACACACCTTGTTTTAATTT [CACACA_site2266],8.27 ± 0.27
19,TTTTACACTTTTTTTTGTACACACTAAAAAGATTAA [XGTACX_site8407],8.54 ± 0.28
20,CAAATCATATATAGCACACAAATTCTTTATTATTAT [CACACA_site2815],8.34 ± 0.18
21,AAAGGTTCATAAAAATGTACATAATTATTTACATGT [XGTACX_site2722],8.43 ± 0.39
22,CTGATCCACATTTATACACACCTCGGTTTGTAGAGA [CACACA_site4393],8.47 ± 0.47
23,AAAATATATAATATTTGTACATATTGATGGCAACAG [XGTACX_site6454],8.56 ± 0.13

row,Sequence,gcPBM binding intensity (ln)
1,ATATAATTTGATGGTTAACACACATATATATTATAT [CACACA_site8775],8.4 ± 0.4
2,TCATATAATCAAATATGTACATATTTTCAATTGAAT [XGTACX_site6831],8.72 ± 0.38
3,ATATTTATTTAATGAACACACGATATATTATTTTAT [CACACA_site1602],8.45 ± 0.35
4,TTATTTATTTTTTATACACACAATTATCTTTTTAAG [CACACA_site6162],8.47 ± 0.49
5,ATATAGAATATATTAACATGCAATAAGTAAAGGGGG [TGCATGCA_site1022],9.4 ± 0.11
6,CACTTCATAAAAATTGCACACATATAATAATGTACA [CACACA_site8692],8.51 ± 0.23
7,ACAATGAAATATTCATGTACATATAAATAATAGTGT [XGTACX_site3762],8.85 ± 0.41
8,AAAATGATAATACCAAGTACACATATGAAAAATACA [XGTACX_site6763],8.9 ± 0.42
9,TAAAAACATTTAAATTGTACGGAAATAAAAATTTTT [XGTACX_site8225],8.52 ± 0.34
10,TGTTTTCCCTTTAGTGTGCACGTATTTCTATTAACA [GTGCAC_site9847],9.32 ± 0.36
11,TAAATCATTTATTAAGTGCAATATTCTTTTTGAGAT,8.365 ± 0.021
12,ATATAAATATTAAATACACACATTTTTGATTAGGTT [CACACA_site7461],8.22 ± 0.34
13,TATTTCGTAATTTAATAATATACAAGAAATATATAT [XGTACX_negctrl_site143],8.16 ± 0.47
14,TATGTGTATAATAAAAGTACATATATTATTATATAA [XGTACX_site8556],8.38 ± 0.31
15,CATATAATAAAAAATGTACACACATAAGAAAATTTA [CACACA_site8943],8.84 ± 0.51
16,TAAAATAATAAAACAACACACAAATAGTTAAAATAG [CACACA_site1680],8.88 ± 0.41
17,ATTGACGTCATATAAACATGCACATTTTGGATGTTT [TGCATGCA_site985],8.49 ± 0.33
18,TTTTTTTTAAATTGTGGTACACAAATTCATATATAT [XGTACX_site8944],8.48 ± 0.41
19,TAAATATAATAAGAACAAACAAAATAGTACAATATA [TGCATGCA_negctrl_site364],8.85 ± 0.42
20,TGTTAACTTAAAAAAATACCTACGGAAAAATCACAA [TGCATGCA_negctrl_site433],8.51 ± 0.51
21,AAAAGAAAAAAAAGTACACACATGTATATTAATCGT [CACACA_site2528],8.89 ± 0.46
22,GTCATATTATTATTACGTACTTAAATATATAATATA [XGTACX_site3405],8.69 ± 0.25
23,TACAAAATACAAAAATGTACATAAAAATTTATAAAA [XGTACX_site6861],8.7 ± 0.41

row,Sequence,gcPBM binding intensity (ln)
1,ATATTAAAATATAATCGTACAATTAAATTTTTTTTT [XGTACX_site2739],8.2 ± 0.32
2,TACAGATACGGACACACACACACACCCAGACAAAAA [CACACA_site4432],8.71 ± 0.43
3,AAGATAAACTTTTTTAATTAATTTAATTTTTTTTTT [GTGCAC_negctrl_site386],8.24 ± 0.59
4,AATAAATAAAAAATTACACACATATTTATAAATATA [CACACA_site7584],8.29 ± 0.49
5,TTATAATAGTTAATATGTACATATTTAATAAATAAT [XGTACX_site3183],8.43 ± 0.2
6,CCCCCCCACGAACACACACACATACATACCACATAT [CACACA_site7149],10.41 ± 0.028
7,TTTGTTTTTATTTACACATGCAAAAAAAAAAAAAAA [TGCATGCA_site655],8.32 ± 0.28
8,TAAAATAAGTTAAAAAGTACATAATTATAATAAATA [XGTACX_site8108],8.43 ± 0.39
9,CACAAAAATAAATATAAACACACAATAAATAAATAA [CACACA_site8197],8.71 ± 0.36
10,ATATATATATATATTCCACACACACCCAAAAAAAAA [CACACA_site9215],10.1 ± 0.24
11,AAAGGGACATATATATCACACACAAAAATTAGTCCC [CACACA_site8897],8.85 ± 0.68
12,TAATATCTACATATATGTACATATATATATATATAT [XGTACX_site7979],9.94 ± 0.4
13,TTATATATGTATTAATGTACATAGTTGAGAAAGGTA [XGTACX_site1511],8.79 ± 0.49
14,ATAATATAGAACAATACATGCAAATGGCTTAAATTT [TGCATGCA_site521],9.09 ± 0.26
15,GGAAGCTAATTACACACATGCATATTTTTTTTTCAA [TGCATGCA_site548],8.79 ± 0.35
16,ATGGGACAGATATATACACACATATAAATATAAATA [CACACA_site6684],8.74 ± 0.44
17,TATGTTAAAAAAAAATGTACATATGTTTTTGTTAAA [XGTACX_site4754],8.36 ± 0.32
18,TTTCCCCCATATAATGAACACACACCCTCCTCATAA [CACACA_site8110],9.68 ± 0.38
19,ATACATTCAAAATATACACACATATATATATAATAT [CACACA_site950],8.49 ± 0.39
20,AAATGAATAATGATATACAAACAAATCATGTGTTAA [XGTACX_negctrl_site150],8.37 ± 0.33
